Laboratory results reported in PubChem BioAssay AID1240 (Sanford-Burnham Center for Chemical Genomics, 2008).
Out of some 50,000 compounds screened, about 800 (1.6%) showed an effect of 50% or more. The list shows a part of the results.

Each molecule was assayed against Bcl-2-like protein 10 (Homo sapiens) (UniProt Q9HD36) (assay: TR3 peptide-Bcl-B binding displacers, biochemical primary FP assay, phenotype converters (AID 1240;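 note: 0% = Bcl-B with tracer peptide and DMSO and 100% = tracer peptide lacking Bcl-B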)). Conditions: GST-Bcl-B / FITC-TR3 peptide fluorescence polarization; stronger effect = higher value; compound at 3.75 mg/L.
UniProt Q9HD36, sequence (Q9HD36 whole entry, looked up): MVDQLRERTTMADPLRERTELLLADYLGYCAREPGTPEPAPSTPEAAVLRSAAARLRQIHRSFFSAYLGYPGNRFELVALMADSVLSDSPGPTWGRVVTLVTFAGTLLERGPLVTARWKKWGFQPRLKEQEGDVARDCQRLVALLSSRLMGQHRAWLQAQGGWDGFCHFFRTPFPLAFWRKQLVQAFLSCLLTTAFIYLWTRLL

| SMILES | displacement [%] |
| --- | --- |
| O=C1Nc2ccccc2/C1=N/N=C/c1cccc(Oc2ccccc2)c1 | 0 |
| Cc1cccc(N=Cc2ccc(OC3CSC3)cc2)c1 | -5 |
| COC(=O)c1ccccc1NC(=O)CN(c1cccc([N+](=O)[O-])c1)S(=O)(=O)c1ccccc1 | -11.4 |
| O=C(N/C(=C/c1ccc(Br)cc1)C(=O)N1CCOCC1)c1ccccc1 | -1.3 |
| CCN1C(=O)/C(=C\c2ccc(OS(=O)(=O)c3ccccc3[N+](=O)[O-])c(OC)c2)SC1=S | 11.4 |
| CC1=CC(C)(C)N(C(=O)CN2C(=O)C3CCCCC3C2=O)c2cc(C)ccc21 (stereo not given) | 10 |
| CC(=O)Nc1ccccc1NC(=O)Cc1cccs1 | 5.3 |
| CC(C)(C)NC(=O)c1cccc(Oc2ccc([N+](=O)[O-])cc2)c1 | -2.1 |
| O=C1CC(c2ccc(Cl)cc2)CC2=C1C(c1cc3c(cc1Br)OCO3)Nc1ccccc1N2 (stereo not given) | -6.5 |
| COc1cc(C(=O)N2CCN(Cc3ccccc3)CC2)c([N+](=O)[O-])cc1OC | 3.6 |
| CCCCP(=O)(CCCC)CP(=O)(CCCC)CCCC | -3.6 |
| N/C(=N\N=C\c1c(O)ccc2ccccc12)c1nonc1N | 11.1 |
| OCc1nc2ccccc2n1Cc1ccc2ccccc2c1 | -13.5 |
| Cc1ccnc(NC(=S)NC(=O)c2ccco2)c1 | 7.3 |
| Cc1c(NC(=S)NC(NC(=O)c2ccccc2Cl)C(Cl)(Cl)Cl)c(=O)n(-c2ccccc2)n1C (stereo not given) | 8.9 |
| FC(F)(F)C(Oc1nc(Nc2ccc(Cl)cc2)nc(N2CCOCC2)n1)C(F)(F)F | 2.3 |
| CCCCNC(=O)c1c(NC(=O)c2ccccc2)sc(C)c1C | 8.5 |
| O=C(O)Cn1c(O)c(C2=c3ccccc3=NC2=O)sc1=S | 0.7 |
| O=Cc1cn[nH]c1-c1ccc(Cl)cc1 | -9.1 |
| COCCCNC(=O)c1ccc(CN(c2ccccc2)S(C)(=O)=O)cc1 | 13.6 |
| COc1ccc(/C=C/C(=O)NC(=S)NCc2ccccc2)cc1OC | -3.1 |
| CC1(C)CC(n2c(=O)c3c(n4cnnc24)-c2ccccc2CC32CCCCC2)CCO1 (stereo not given) | -8 |
| O=C1CN2C(=Nc3ccc(Br)cc3C2c2ccccc2)CCN1 (stereo not given) | -3.9 |
| CC(C)(C)c1ccc(-c2nnc(-c3ccc(Br)o3)o2)cc1 | 2.4 |
| CCOc1ccccc1NC(=O)c1cncc(Br)c1 | 10 |
| COC12CCCCC1OC1(OC)CCCCC1O2 (stereo not given) | 4.6 |
| Cc1ccc([N+](=O)[O-])cc1N[C@@H]1OC[C@@H](O)[C@H](O)[C@H]1O | -2.2 |
| Cc1cccc(OCC(=O)Nc2cccc(Cl)c2Cl)c1 | 3.2 |

| SMILES | displacement [%] |
| --- | --- |
| Cc1cc(NC(=O)/C=C/C(=O)O)ccc1NC(=O)c1cccs1 | 4.5 |
| COc1cccc(/C=C2/SC(=S)N(CCC(=O)N3c4ccccc4Sc4ccc(Cl)cc43)C2=O)c1 | 14.4 |
| COc1cc(OC)cc(C(=O)Nc2ccc(C)cc2Br)c1 | -0.3 |
| CC(=O)c1sc(NC(=O)c2ccc([N+](=O)[O-])s2)nc1-c1ccccc1 | 12 |
| COc1ccc(C2Sc3ccccc3NC3=C2C(=O)c2ccccc23)cc1 (stereo not given) | -2.8 |
| CC(=O)NC1=NC(=O)/C(=C/c2cc(C)n(-c3ccc(NC(C)=O)cc3)c2C)S1 | -32.2 |
| COc1ccc(/C=C2/SC(NC(C)=O)=NC2=O)c(OC)c1 | 133 |
| COc1cc(/C=C2\SC(=Nc3ccc(C)c(Cl)c3)NC2=O)cc(OC)c1OC | -14 |
| COc1ccc(C(=O)N=Nc2c(O)[nH]c3c(C)cc(Br)cc23)cc1 | 3 |
| CCOc1ccccc1NC(=O)CN(c1ccc(Br)cc1)S(C)(=O)=O | -3.2 |
| C/C(=C1/C(=O)N(c2nc3ccccc3s2)N=C1C(F)(F)F)N1CCCC1 | 13 |
| O=C1CSC(c2ccccc2F)N1c1ccccc1 (stereo not given) | -1.5 |
| CC1=CC(=NS(=O)(=O)c2ccc(C)cc2)C=C(C)C1=O | 4.7 |
| S=c1oc(-c2ccccc2Cl)nn1CN1CCCCC1 | 40.1 |
| COc1ccc(/C=C2/SC(=S)N(CCC(=O)N3CCN(C4=NC(=O)/C(=C\c5ccc(C)cc5)S4)CC3)C2=O)cc1 | 7.5 |
| COc1ccccc1N1CCN(C(=O)c2cccc(C)c2)CC1 | -13 |
| COc1ccccc1/C=C1/SC(=S)N(NC(=O)c2ccc(Cl)cc2)C1=O | -61.5 |
| COc1ccc(C(=O)NCCSCc2ccc(Br)cc2)cc1 | 3.2 |
| c1ccc(-c2nnc(-c3ccccn3)nc2-c2ccccc2)cc1 | 1.3 |
| O=S(=O)(Nc1nc2ccccc2s1)c1cccc2cccnc12 | -6.7 |
| CCOc1ccc(-c2cc(C)n3nc(C(=O)Nc4ccc(C(C)=O)cc4)cc3n2)cc1 | 18.2 |
| Cc1ccccc1NC(=O)CC(=O)c1ccccc1 | -11.6 |
| CC(=O)OC1CCC2(C)C(=CCC3C2CCC2(C)C(C(C)=NO)CCC32)C1 (stereo not given) | 5.3 |
| COc1ccc(C(=O)Oc2ccc3c4c(c(=O)oc3c2)CCC4)cc1 | -4 |
| Cc1ccc(OCCOc2ccc(C=O)cc2)cc1 | 5.5 |
| Cc1cc2nc(-c3cc(NC(=O)c4ccco4)ccc3O)oc2cc1C | 27.7 |
| O=C(Cc1ccccc1)Nc1ccccc1NC(=O)Cc1ccccc1 | 2.9 |
